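48-hour exposure; five concentrations; linearly interpolated endpoints. Here, GI50 denotes the concentration required for 50% inhibition of growth.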 Calls of active or inactive are those of the source. Cut-off read from the data, not from the text of the source: active = GI50 up to about 1.1 µM and inactive = higher.
These molecules were tested on NCI-H322M (assay: DTP human tumour cell line panel, 48 h).
For `COc1ccc(CNc2nc3cc(C(F)(F)F)ccc3nc2C(=O)O)cc1`, the GI50 was inactive: 23.9 µM.
For `O=C(O)c1ccccc1/C=N\N=C1NCCCCN1`, the GI50 was inactive: > 100 µM.
With `CC1CCCOc2ccc(cc2)/C=N\c2ccc(cc2)CCc2ccc(cc2)/N=C\c2ccc(cc2)OCCC1` the GI50 was inactive: > 100 µM.
In the case of `CC1CC2C3CC(F)C4=CC(=O)C=CC4(C)C3(F)C(O)CC2(C)C1(O)C(=O)CO` (configuration not stated), the GI50 is reported as inactive: > 100 µM.
`Cc1cc2nc(C=C(C(F)(F)F)C(F)(F)F)oc2cc1C` was tested, and the GI50 was inactive: 2.2 µM.
For `C=CCCCCCC(O)C(O)C/C=C\C/C=C\CC` (configuration not stated), the GI50 was inactive: > 18.8 µM.
For `CC(C)(C)c1cc(C(O)(C(F)(F)F)C(F)(F)F)c2c(c1)C(C(F)(F)F)(C(F)(F)F)OC(C)(C(C)(C)C)N2` (configuration not stated), the GI50 was inactive: 4.35 µM.
`Cc1ncc(-c2nnnn2-c2ccccc2)c(C(=O)O)n1` was tested, and the GI50 was inactive: > 100 µM.
For `COc1ccc(C2(C3c4cc(OC)c(OC)cc4CCN3C)SCCCS2)cc1O` (configuration not stated), the GI50 was inactive: > 100 µM.
With `COc1ccc(CNc2ccn(C3OC(CO)C(O)C3O)c(=O)n2)cc1` (configuration not stated) the GI50 was inactive: > 100 µM.
With `C[C@]12CCC3[C@@H](CC[C@@H]4c5nonc5CC[C@]34C)C1CC[C@@H]2O` (some centres not stated) the GI50 was inactive: 69 µM.
For `O=C(NC(=O)c1ccccc1[N+](=O)[O-])Nc1ccc(Oc2ncc(Cl)cn2)c([N+](=O)[O-])c1`, the GI50 was active: 0.385 µM.
With `Cc1ccccc1NC(=O)C(=O)Cc1nc2ccccc2s1` the GI50 was inactive: > 100 µM.
In the case of `CN(C)CCCNC(=O)c1cn2c(ccc3sc4ccccc4c(=O)c32)n1`, the GI50 is reported as inactive: 6.21 µM.
In the case of `COC(=O)C1=C(OC(=O)/C=C/c2ccc(Cl)cc2)C(C(=O)OC)[C@]2(O)[C@@H](C(=O)OC)[C@H]1C[C@@H](c1ccccc1)[C@@H]2C(=O)OC` (some centres not stated), the GI50 is reported as inactive: 6.38 µM.
In the case of `O=C1CC(O)c2cscc21` (configuration not stated), the GI50 is reported as inactive: > 100 µM.
For `Cc1nc2[nH]ccn2c(=O)c1CCO`, the GI50 was inactive: > 10 µM.
With `c1cc2sc1CSCCSCCSC2` the GI50 was inactive: > 100 µM.
In the case of `CCOC(=O)CCC(NC(=O)c1ccc(OCc2nc3ccccc3n3cccc23)cc1)C(=O)OCC` (configuration not stated), the GI50 is reported as inactive: > 100 µM.
`Cn1ccnc1CC(C)(O)c1ccccc1` (configuration not stated) was tested, and the GI50 was inactive: > 100 µM.
In the case of `CC(/C(=N\Nc1ccccc1)c1ccc(O)cc1)C1C(=O)Oc2ccccc21` (configuration not stated), the GI50 is reported as inactive: > 100 µM.
With `O=C(O)/C=C/c1ccc2c(c1)CC1(Cc3ccccc3C1)C2` the GI50 was inactive: > 100 µM.
With `NC(=O)C12CC3CC(CC(F)(C3)C1)C2` the GI50 was inactive: > 100 µM.
With `OCCCNCC(O)c1ccc(OCc2ccccc2)c(OCc2ccccc2)c1` (configuration not stated) the GI50 was inactive: 13.4 µM.
`COc1cc(Nc2nc3cc(C(F)(F)F)ccc3nc2C)cc(OC)c1OC` was tested, and the GI50 was inactive: 4.09 µM.
With `COc1c(C2=NC(C(C)C)CO2)ccc2ccccc12` (configuration not stated) the GI50 was inactive: 62.7 µM.
With `O=C(/C=C/c1ccccc1O)c1ccccc1O` the GI50 was inactive: > 100 µM.
In the case of `Sc1nn2c(Cc3ccccc3)nnc2s1`, the GI50 is reported as inactive: > 100 µM.
`O=C(CN1CCCC1)Nc1ccc2c(c1)C1Oc3ccccc3CC1CO2` (configuration not stated) was tested, and the GI50 was inactive: 56.8 µM.
With `Cc1oc2c(c1C)S(=O)(=O)C(C#N)=CN2` the GI50 was inactive: > 100 µM.
With `CCOC(=O)c1nc2c3c(ncn2n1)Oc1c(c(-c2ccccc2)nn1-c1ccccc1)C3c1ccc(Cl)cc1` (configuration not stated) the GI50 was inactive: > 100 µM.
With `O=c1oc2ccccc2cc1-c1csc(Nc2ccc(F)cc2)n1` the GI50 was inactive: 3.91 µM.
`CC1=C(C(=O)NCc2ccccc2)C(c2ccccc2[N+](=O)[O-])C(C(=O)NCc2ccccc2)=C(C)N1` was tested, and the GI50 was inactive: 16.1 µM.
With `COc1ccc(-c2cc(=O)c3c(OC)c(OC)c(OC)c(OC)c3o2)cc1OC` [NOBILETIN] the GI50 was inactive: 39.1 µM.
In the case of `COc1cc(O)c(Cc2ccccc2O)c(O)c1C(=O)CCc1ccccc1` [UVARETIN], the GI50 is reported as inactive: 6.92 µM.
For `C[C@@H]1CC(=O)C2CCCC1C2=O` (some centres not stated), the GI50 was inactive: > 100 µM.
For `COC(=O)C1=NN2c3ccccc3CN([C@@H](C)c3ccccc3)C(=O)[C@@H]2[C@H]1c1ccccc1`, the GI50 was inactive: > 100 µM.
`CSc1c(C#N)c(O)n(-c2ccc(Cl)cc2)c(=O)c1C(C)=O` was tested, and the GI50 was inactive: 36.6 µM.
For `O=C1CCC(Cc2ccc(Cl)cc2Cl)C(=O)N1` (configuration not stated), the GI50 was inactive: > 100 µM.
In the case of `CCCCc1c(OC)cc(O)c2c1C(=O)c1[nH]c(C(=O)O)c(O)c(=O)c1C2=O`, the GI50 is reported as inactive: 30.4 µM.
For `CCCCCCCCCCCCCCCCCCN(C)CC(COC)OP(=O)([O-])OCC[N+](C)(C)C` (configuration not stated), the GI50 was inactive: 6.9 µM.
In the case of `CC(=N\c1ccncc1)/C(C)=N/c1ccncc1`, the GI50 is reported as inactive: > 100 µM.
For `OCc1ccc2c(c1)CC1(Cc3ccc(/C=N/O)cc3C1)C2` (configuration not stated), the GI50 was inactive: 9.18 µM.
`O=C(O)c1ccc(/N=N/c2cc(S(=O)(=O)O)c3cccnc3c2O)cc1` was tested, and the GI50 was inactive: > 100 µM.
For `Cc1ccccc1C1=C/C(=C(\SS/C(C(=O)c2ccc(OCC(=O)O)c(Cl)c2Cl)=C2\C=C(c3ccccc3C)SS2)C(=O)c2ccc(OCC(=O)O)c(Cl)c2Cl)SS1`, the GI50 was inactive: 57.8 µM.
For `Clc1ccc(-c2nn3c(C45CC6CC(CC(C6)C4)C5)nnc3s2)cc1`, the GI50 was inactive: > 100 µM.
With `Nc1nc(=O)[nH]c2c1cnn2Cc1ccccc1` the GI50 was inactive: > 100 µM.
With `O=c1[nH]c(=O)n(C2CC(O)C(COP(=O)(O)OC3CC(n4cc(F)c(=O)[nH]c4=O)OC3COP(=O)(O)OC3CC(n4cc(F)c(=O)[nH]c4=O)OC3COP(=O)(O)OC3CC(n4cc(F)c(=O)[nH]c4=O)OC3COP(=O)(O)OC3CC(n4cc(F)c(=O)[nH]c4=O)OC3COP(=O)(O)OC3CC(n4cc(F)c(=O)[nH]c4=O)OC3COP(=O)(O)OC3CC(n4cc(F)c(=O)[nH]c4=O)OC3COP(=O)(O)OC3CC(n4cc(F)c(=O)[nH]c4=O)OC3COP(=O)(O)OC3CC(n4cc(F)c(=O)[nH]c4=O)OC3COP(=O)(O)OC3CC(n4cc(F)c(=O)[nH]c4=O)OC3CO)O2)cc1F` (configuration not stated) the GI50 was active: 0.172 µM.
In the case of `COC(=O)[C@H](Cc1ccccc1)NC(=O)OCC1OC(n2cc(C)c(=O)[nH]c2=O)CC1N=[N+]=[N-]` (some centres not stated), the GI50 is reported as inactive: > 100 µM.
`CC1(C)OC2C(CCP(=O)(O)O)OC(c3nc(C(N)=O)cs3)C2O1` (configuration not stated) was tested, and the GI50 was inactive: > 100 µM.
With `CCCNC(=O)C(C)C1CCC2(C)C=CC(=O)C(C)=C2C1O` (configuration not stated) the GI50 was inactive: > 100 µM.
In the case of `CCc1nc2ccc(/N=N/N(C)C)cc2[nH]1`, the GI50 is reported as inactive: > 100 µM.
`CC(C)CCCC(C)[C@H]1CCC(C2C[C@@H](O)[C@@H]3CC(O)[C@@H](O)C[C@]3(CO)C2=O)[C@]1(C)CCO` (some centres not stated) was tested, and the GI50 was inactive: 28.7 µM.
In the case of `COc1ccc(C(c2ccc3c(c2)OCO3)N2C(=O)CCC2C(=O)O)cc1` (configuration not stated), the GI50 is reported as inactive: > 100 µM.
In the case of `CC12CC3CC(C)(C1)CC(N=[N+]=[N-])(C3)C2`, the GI50 is reported as inactive: > 100 µM.
With `Cc1cc(N(C)C)c2ccccc2[n+]1CCCCCCCCCC[n+]1c(C)cc(N(C)C)c2ccccc21.[O-][Cl+3]([O-])([O-])[O-].[O-][Cl+3]([O-])([O-])[O-]` the GI50 was inactive: 3.09 µM.
With `C[C@]12CCC3c4ccc(O)cc4CC[C@H]3C1CC(=O)N(N)C2=O` (some centres not stated) the GI50 was inactive: > 100 µM.
In the case of `O=C(COC(=O)c1ccccc1)c1ccc(Br)cc1`, the GI50 is reported as inactive: 13.1 µM.
`NCc1cc(O)c(O)c(O)c1` was tested, and the GI50 was inactive: > 100 µM.
For `Cc1cc(OC(=O)Nc2cccc3ccccc23)c(C(C)C)cc1C(=S)Nc1ccccc1`, the GI50 was inactive: 22.2 µM.
With `CCC(=O)OC[n+]1ccc2c(C)c3[nH]c4ccccc4c3c(C)c2c1` the GI50 was active: 0.376 µM.
For `CCCCCCCCCCCCCCCCCCNc1ccn(C2OC(COP(=O)(O)OCC3OC(n4cc(C)c(=O)[nH]c4=O)CC3O)C(O)C2O)c(=O)n1` (configuration not stated), the GI50 was inactive: 18.7 µM.
`CC1(C)Cc2c(C#N)c(N)c3c(c2CO1)C(=O)OC3=O` was tested, and the GI50 was inactive: > 100 µM.
With `CCC(=O)Nc1cccc(/N=C/c2ccc(OC(=O)/C=C\c3ccccc3)cc2)c1` the GI50 was inactive: > 75 µM.
In the case of `O=c1c2cc(Br)cc(Br)c2nc(CCCl)n1CCO`, the GI50 is reported as inactive: 82.2 µM.
In the case of `c1ccc2c(c1)CCN1CCc3ccccc3C1C2` (configuration not stated), the GI50 is reported as inactive: 72.9 µM.
In the case of `CCOC(=O)C1(CO)CSCCSC1`, the GI50 is reported as inactive: > 100 µM.
In the case of `NC(=S)NN=C1Cc2ccccc2C1`, the GI50 is reported as inactive: > 100 µM.
`O=S(O)CCCCCSSc1ccc(Cl)cc1` was tested, and the GI50 was inactive: 31 µM.
For `Brc1c2c(c(Br)c3nsnc13)N=S=N2`, the GI50 was inactive: > 89.7 µM.
`O=C(N/N=C/C=C/c1ccc([N+](=O)[O-])o1)c1ccc(C(=O)N/N=C/C=C/c2ccc([N+](=O)[O-])o2)cc1` was tested, and the GI50 was inactive: > 89.9 µM.
`COc1cc2cccc(N)c2cc1OC` was tested, and the GI50 was inactive: > 100 µM.
For `CC(O)CCNC(=O)Nc1c(C(F)(F)F)cc(-c2ccccc2)[nH]c1=O` (configuration not stated), the GI50 was inactive: > 100 µM.
With `O=C1C=C(N2CCN(CCOCCO)CC2)C(=O)c2c(O)ccc(O)c21` the GI50 was inactive: 3.78 µM.
For `Cc1ccc(Sc2ccc(C)cc2[N+](=O)[O-])c([N+](=O)[O-])c1`, the GI50 was inactive: > 100 µM.
For `N#C[BH2-][n+]1cn(C2CC(OP(=O)(O)OCC3OC(n4cnc5c(=O)[nH]c(N)nc54)CC3O)C(CO)O2)c2nc(N)[nH]c(=O)c21` (configuration not stated), the GI50 was inactive: > 100 µM.
`c1ccc(C2SCc3nc4ccccc4n32)cc1` (configuration not stated) was tested, and the GI50 was inactive: 71.1 µM.
`C[C@]12CCc3nonc3C1CC[C@@H]1C2CC[C@@]2(C)C1CC[C@@H]2O` (some centres not stated) was tested, and the GI50 was inactive: > 100 µM.
For `CS(=O)(=O)OCCCOS(C)(=O)=O`, the GI50 was inactive: > 100 µM.
`C=C1CC(OC)(C(OC)C(=O)N(C)[C@H]2OCO[C@H]3C2O[C@H](C[C@@H](COC)OC)C(C)(C)C3OC)O[C@H](C)[C@@H]1C` (some centres not stated) was tested, and the GI50 was inactive: 10.1 µM.
`O=[N+]([O-])/C=C(\CS(=O)(=O)c1ccccc1)c1ccc2c(c1)OCO2` was tested, and the GI50 was inactive: 86.1 µM.
`CCC1CN2CCc3cc(OC)c(OC)cc3C2CC1CC1c2cc(OC)c(OC)cc2CCN1C(=O)C1CCCN1` (configuration not stated) was tested, and the GI50 was inactive: 32.1 µM.
`COP(=O)(/C=C/c1cc(C(=O)OCc2ccccc2)n(S(=O)(=O)c2ccccc2)c1)OC` was tested, and the GI50 was inactive: > 100 µM.
With `COc1ccc2c(c1)C(=O)C1(C2)[C@H](c2ccccc2)C2C(=O)c3cc(OC)ccc3C2[C@H]1c1ccccc1` (some centres not stated) the GI50 was inactive: > 100 µM.
`Cc1ccc(Sc2cc([N+](=O)[O-])cc(Sc3ccc(C)cc3)c2Sc2ccc(C)cc2)cc1` was tested, and the GI50 was inactive: > 100 µM.
For `CCOC(=O)Nc1ccc(S(=O)(=O)OC)cc1.CCOC(=O)Nc1ccc(S(=O)(=O)OC)cc1.Cc1cn(C2CC(O)C(CO)O2)c(=O)[nH]c1=O`, the GI50 was inactive: > 100 µM.
For `O=C1O/C(=C(\Br)c2cccc3ccccc23)c2ccccc21`, the GI50 was inactive: > 34.1 µM.

From ChEMBL document CHEMBL1201862, “PubChem BioAssay data set” (2004)
